These are yes or no findings as the source states them, for the method shown. For some of these results: Binding seen in cells or lysates may run through a third protein. For some of these results: Sequences can lack the tags named with a protein. Some entries that bind do so weakly or less than the wild type.
T1: PotC (E. coli K12) (UniProt P0AFK6)
T1 sequence: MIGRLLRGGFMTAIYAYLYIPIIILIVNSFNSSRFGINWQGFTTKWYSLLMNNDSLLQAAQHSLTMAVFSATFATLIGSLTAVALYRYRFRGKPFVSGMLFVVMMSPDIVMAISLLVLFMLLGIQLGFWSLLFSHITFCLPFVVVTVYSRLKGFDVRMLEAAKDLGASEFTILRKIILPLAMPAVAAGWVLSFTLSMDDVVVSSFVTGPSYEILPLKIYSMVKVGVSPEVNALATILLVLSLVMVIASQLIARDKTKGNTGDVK

T2: PotB (E. coli K12) (UniProt P0AFK4)
T2 sequence: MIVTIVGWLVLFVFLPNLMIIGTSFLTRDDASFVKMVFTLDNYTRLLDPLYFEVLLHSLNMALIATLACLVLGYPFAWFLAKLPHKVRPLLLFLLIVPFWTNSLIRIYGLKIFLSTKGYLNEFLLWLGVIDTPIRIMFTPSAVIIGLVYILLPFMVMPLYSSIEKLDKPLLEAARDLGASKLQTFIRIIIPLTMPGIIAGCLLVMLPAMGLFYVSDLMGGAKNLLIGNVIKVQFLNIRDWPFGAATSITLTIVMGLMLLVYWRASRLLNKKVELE

T3: PotD (wild type), spermidine-binding protein (E. coli K12) (UniProt P0AFK9)
T3 sequence: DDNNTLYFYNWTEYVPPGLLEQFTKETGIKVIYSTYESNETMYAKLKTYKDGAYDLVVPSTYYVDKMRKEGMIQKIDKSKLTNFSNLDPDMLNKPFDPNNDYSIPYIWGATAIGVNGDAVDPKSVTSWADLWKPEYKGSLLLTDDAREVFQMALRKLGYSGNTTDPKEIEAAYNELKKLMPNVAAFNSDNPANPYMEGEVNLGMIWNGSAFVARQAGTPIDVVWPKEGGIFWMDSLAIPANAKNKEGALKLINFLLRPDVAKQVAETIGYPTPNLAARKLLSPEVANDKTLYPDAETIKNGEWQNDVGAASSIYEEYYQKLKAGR

T4: PotABC E173Q complex (E. coli K12) (UniProt P69874+P0AFK4+P0AFK6)
T4 sequence 1: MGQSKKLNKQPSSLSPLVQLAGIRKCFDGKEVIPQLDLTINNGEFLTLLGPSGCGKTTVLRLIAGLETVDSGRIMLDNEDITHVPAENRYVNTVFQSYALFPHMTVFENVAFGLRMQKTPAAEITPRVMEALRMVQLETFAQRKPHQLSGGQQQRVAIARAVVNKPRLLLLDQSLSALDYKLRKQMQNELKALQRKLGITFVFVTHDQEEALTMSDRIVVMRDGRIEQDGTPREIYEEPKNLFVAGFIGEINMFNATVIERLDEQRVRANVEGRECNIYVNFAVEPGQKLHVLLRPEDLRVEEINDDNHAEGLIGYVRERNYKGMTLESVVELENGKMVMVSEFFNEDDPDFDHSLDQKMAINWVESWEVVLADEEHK
T4 sequence 2: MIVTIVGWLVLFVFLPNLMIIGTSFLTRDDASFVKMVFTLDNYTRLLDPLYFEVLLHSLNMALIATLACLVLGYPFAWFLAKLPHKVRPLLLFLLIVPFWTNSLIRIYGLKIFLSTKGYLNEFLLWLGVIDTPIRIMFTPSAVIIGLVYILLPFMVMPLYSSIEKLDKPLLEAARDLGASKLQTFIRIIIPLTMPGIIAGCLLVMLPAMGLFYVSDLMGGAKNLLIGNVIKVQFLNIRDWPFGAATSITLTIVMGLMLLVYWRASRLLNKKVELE
T4 sequence 3: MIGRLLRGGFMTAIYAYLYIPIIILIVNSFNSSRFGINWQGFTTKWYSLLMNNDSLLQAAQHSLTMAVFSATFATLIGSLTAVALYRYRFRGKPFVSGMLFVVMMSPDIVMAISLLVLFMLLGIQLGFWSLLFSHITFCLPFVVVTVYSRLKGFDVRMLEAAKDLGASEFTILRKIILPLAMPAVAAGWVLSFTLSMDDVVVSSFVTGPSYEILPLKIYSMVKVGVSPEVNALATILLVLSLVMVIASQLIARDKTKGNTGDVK


Assays:
PotC (E. coli K12) [1] = target: T1, PotC (E. coli K12); test: cryo-EM structure; PotD-PotABC E173Q complex formed with Spd, ATP and Mg2+, in LMNG; Spd-bound pretranslocation state (3.1 Å) and ATP-bound translocation intermediate state (3 Å; dataset 2 with 3 mM Fos-Choline-8); both purified
PotC (E. coli K12) [2] = target: T1, PotC (E. coli K12); test: cryo-EM structure; PotABC E173Q complex in detergent (LMNG), incubated with ATP, Mg2+ and Spd; apo and Spd-bound maps at 3.1 Å; both purified
PotC (E. coli K12) [3] = target: T1, PotC (E. coli K12); test: cryo-EM structure; wild-type PotABC complex reconstituted into MSP1E3D1/asolectin nanodiscs, with ATP, Mg2+ and Spd; map at 3.5 Å; both purified
PotB (E. coli K12) [4] = target: T2, PotB (E. coli K12); test: cryo-EM structure; PotD-PotABC E173Q complex formed with Spd, ATP and Mg2+, in LMNG; Spd-bound pretranslocation state (3.1 Å) and ATP-bound translocation intermediate state (3 Å; dataset 2 with 3 mM Fos-Choline-8); both purified
PotB (E. coli K12) [5] = target: T2, PotB (E. coli K12); test: cryo-EM structure; PotABC E173Q complex in detergent (LMNG), incubated with ATP, Mg2+ and Spd; apo and Spd-bound maps at 3.1 Å; both purified
PotB (E. coli K12) [6] = target: T2, PotB (E. coli K12); test: cryo-EM structure; wild-type PotABC complex reconstituted into MSP1E3D1/asolectin nanodiscs, with ATP, Mg2+ and Spd; map at 3.5 Å; both purified
[7] = target: T3, PotD (wild type), spermidine-binding protein (E. coli K12); test: pull-down; entire potABCD operon expressed in E. coli with the hexahistidine tag on PotD; nickel-NTA affinity purification from the cleared lysate
[8] = target: T4, PotABC E173Q complex (E. coli K12); test: cryo-EM structure; PotD-PotABC E173Q complex formed with Spd, ATP and Mg2+, in LMNG; Spd-bound pretranslocation state (3.1 Å) and ATP-bound translocation intermediate state (3 Å; dataset 2 with 3 mM Fos-Choline-8); both purified
[9] = target: T4, PotABC E173Q complex (E. coli K12); test: SEC; PotABC E173Q incubated with PotD with 2 mM ATP, Mg2+ and Spd at 4°C for 1 hour; Superose 6 10/30 in 20 mM tris-HCl pH 7.5, 150 mM NaCl, 0.001% LMNG; peak fractions checked by SDS-PAGE; both purified

Row | Binder | binding (PotC (E. coli K12) [1]) | binding (PotC (E. coli K12) [2]) | binding (PotC (E. coli K12) [3]) | binding [9] | further results
1 | PotA E173Q (protein, UniProt P69874 1-378) MGQSKKLNKQPSSLSPLVQLAGIRKCFDGKEVIPQLDLTINNGEFLTLLGPSGCGKTTVLRLIAGLETVDSGRIMLDNEDITHVPAENRYVNTVFQSYALFPHMTVFENVAFGLRMQKTPAAEITPRVMEALRMVQLETFAQRKPHQLSGGQQQRVAIARAVVNKPRLLLLDQSLSALDYKLRKQMQNELKALQRKLGITFVFVTHDQEEALTMSDRIVVMRDGRIEQDGTPREIYEEPKNLFVAGFIGEINMFNATVIERLDEQRVRANVEGRECNIYVNFAVEPGQKLHVLLRPEDLRVEEINDDNHAEGLIGYVRERNYKGMTLESVVELENGKMVMVSEFFNEDDPDFDHSLDQKMAINWVESWEVVLADEEHK | binds | binds |  |  | binding (PotB (E. coli K12) [4]): binds; binding (PotB (E. coli K12) [5]): binds
2 | PotA (wild type) (protein, UniProt P69874 1-378) MGQSKKLNKQPSSLSPLVQLAGIRKCFDGKEVIPQLDLTINNGEFLTLLGPSGCGKTTVLRLIAGLETVDSGRIMLDNEDITHVPAENRYVNTVFQSYALFPHMTVFENVAFGLRMQKTPAAEITPRVMEALRMVQLETFAQRKPHQLSGGQQQRVAIARAVVNKPRLLLLDESLSALDYKLRKQMQNELKALQRKLGITFVFVTHDQEEALTMSDRIVVMRDGRIEQDGTPREIYEEPKNLFVAGFIGEINMFNATVIERLDEQRVRANVEGRECNIYVNFAVEPGQKLHVLLRPEDLRVEEINDDNHAEGLIGYVRERNYKGMTLESVVELENGKMVMVSEFFNEDDPDFDHSLDQKMAINWVESWEVVLADEEHK |  |  | binds |  | binding (PotB (E. coli K12) [6]): binds
3 | PotABC (wild type), co-expressed from the entire potABCD operon with the tag on PotD (complex, UniProt P69874 1-378; P0AFK4 1-275; P0AFK6 1-264) chain 1: MGQSKKLNKQPSSLSPLVQLAGIRKCFDGKEVIPQLDLTINNGEFLTLLGPSGCGKTTVLRLIAGLETVDSGRIMLDNEDITHVPAENRYVNTVFQSYALFPHMTVFENVAFGLRMQKTPAAEITPRVMEALRMVQLETFAQRKPHQLSGGQQQRVAIARAVVNKPRLLLLDESLSALDYKLRKQMQNELKALQRKLGITFVFVTHDQEEALTMSDRIVVMRDGRIEQDGTPREIYEEPKNLFVAGFIGEINMFNATVIERLDEQRVRANVEGRECNIYVNFAVEPGQKLHVLLRPEDLRVEEINDDNHAEGLIGYVRERNYKGMTLESVVELENGKMVMVSEFFNEDDPDFDHSLDQKMAINWVESWEVVLADEEHK chain 2: MIVTIVGWLVLFVFLPNLMIIGTSFLTRDDASFVKMVFTLDNYTRLLDPLYFEVLLHSLNMALIATLACLVLGYPFAWFLAKLPHKVRPLLLFLLIVPFWTNSLIRIYGLKIFLSTKGYLNEFLLWLGVIDTPIRIMFTPSAVIIGLVYILLPFMVMPLYSSIEKLDKPLLEAARDLGASKLQTFIRIIIPLTMPGIIAGCLLVMLPAMGLFYVSDLMGGAKNLLIGNVIKVQFLNIRDWPFGAATSITLTIVMGLMLLVYWRASRLLNKKVELE chain 3: MIGRLLRGGFMTAIYAYLYIPIIILIVNSFNSSRFGINWQGFTTKWYSLLMNNDSLLQAAQHSLTMAVFSATFATLIGSLTAVALYRYRFRGKPFVSGMLFVVMMSPDIVMAISLLVLFMLLGIQLGFWSLLFSHITFCLPFVVVTVYSRLKGFDVRMLEAAKDLGASEFTILRKIILPLAMPAVAAGWVLSFTLSMDDVVVSSFVTGPSYEILPLKIYSMVKVGVSPEVNALATILLVLSLVMVIASQLIARDKTKGNTGDVK |  |  |  |  | binding [7]: no binding

The next lines start with results.

Row | binding (PotC (E. coli K12) [1]) | binding (PotC (E. coli K12) [2]) | binding (PotC (E. coli K12) [3]) | binding [9] | Binder | further results
4 | binds | binds | binds |  | PotB (protein, UniProt P0AFK4 1-275) MIVTIVGWLVLFVFLPNLMIIGTSFLTRDDASFVKMVFTLDNYTRLLDPLYFEVLLHSLNMALIATLACLVLGYPFAWFLAKLPHKVRPLLLFLLIVPFWTNSLIRIYGLKIFLSTKGYLNEFLLWLGVIDTPIRIMFTPSAVIIGLVYILLPFMVMPLYSSIEKLDKPLLEAARDLGASKLQTFIRIIIPLTMPGIIAGCLLVMLPAMGLFYVSDLMGGAKNLLIGNVIKVQFLNIRDWPFGAATSITLTIVMGLMLLVYWRASRLLNKKVELE | 
5 |  |  |  | binds | PotD (wild type), spermidine-binding protein (protein, UniProt P0AFK9 24-348) DDNNTLYFYNWTEYVPPGLLEQFTKETGIKVIYSTYESNETMYAKLKTYKDGAYDLVVPSTYYVDKMRKEGMIQKIDKSKLTNFSNLDPDMLNKPFDPNNDYSIPYIWGATAIGVNGDAVDPKSVTSWADLWKPEYKGSLLLTDDAREVFQMALRKLGYSGNTTDPKEIEAAYNELKKLMPNVAAFNSDNPANPYMEGEVNLGMIWNGSAFVARQAGTPIDVVWPKEGGIFWMDSLAIPANAKNKEGALKLINFLLRPDVAKQVAETIGYPTPNLAARKLLSPEVANDKTLYPDAETIKNGEWQNDVGAASSIYEEYYQKLKAGR | binding [8]: binds
6 |  |  |  | binds weakly | PotD E220A/G221A/E222A triple mutant (protein, UniProt P0AFK9 24-348) DDNNTLYFYNWTEYVPPGLLEQFTKETGIKVIYSTYESNETMYAKLKTYKDGAYDLVVPSTYYVDKMRKEGMIQKIDKSKLTNFSNLDPDMLNKPFDPNNDYSIPYIWGATAIGVNGDAVDPKSVTSWADLWKPEYKGSLLLTDDAREVFQMALRKLGYSGNTTDPKEIEAAYNELKKLMPNVAAFNSDNPANPYMAAAVNLGMIWNGSAFVARQAGTPIDVVWPKEGGIFWMDSLAIPANAKNKEGALKLINFLLRPDVAKQVAETIGYPTPNLAARKLLSPEVANDKTLYPDAETIKNGEWQNDVGAASSIYEEYYQKLKAGR | 

Reference: paper PMC11414716
